{"source": "the supplement of paper PMC8728848", "binders": {"B1": {"name": "ECL (Erythrina cristagalli), Q6YD91 (protein)", "chain": "VETISFSFSEFEPGNNDLTLQGAAIITQSGVLQLTKINQNGMPAWDSTGRTLYTKPVHIWDMTTGTVASFETRFSFSIEQPYTRPLPADGLVFFMGPTKSKPAQGYGYLGVFNNSKQDNSYQTLAVEFDTFSNPWDPPQVPHIGIDVNSIRSIKTQPFQLDNGQVANVVIKYDASSKILLAVLVYPSSGAIYTIAEIVDVKQVLPEWVDVGLSGATGAQRDAAETHDVYSWSFHASLPETND"}}, "test_in_all_cases": "glycan array binding signal (z-score within array); higher = stronger binding", "settings_in_all_cases": "glycan notation: IUPAC condensed, linker removed", "key": {"[1]": {"target": "Gal(a1-3)[Gal(a1-4)]Gal(b1-4)GlcNAc", "summary_of_the_method": "(§1)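 Glycan array data were curated from 3228 arrays in the Consortium for Functional Glycomics database and kept only where the protein sequence was available. Glycan names were converted to IUPAC-condensed notation, and columns mapping to the same glycan were averaged. The binding signal is a within-array Z-score, averaged across arrays of the same protein sequence at different concentrations or buffers and across linkers. Negative Z-scores can be read as non-binding.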"}, "[2]": {"target": "Gal(a1-4)Gal(b1-3)GlcNAc(b1-2)Man(a1-3)[Gal(a1-4)Gal(b1-3)GlcNAc(b1-2)Man(a1-6)]Man(b1-4)GlcNAc(b1-4)GlcNAc", "summary_of_the_method": "as §1"}, "[3]": {"target": "Gal(a1-4)Gal(b1-4)Glc", "summary_of_the_method": "as §1"}, "[4]": {"target": "Gal(a1-4)Gal(b1-4)GlcNAc", "summary_of_the_method": "as §1"}, "[5]": {"target": "Gal(a1-4)Gal(b1-4)GlcNAc(b1-2)Man(a1-3)[Gal(a1-4)Gal(b1-4)GlcNAc(b1-2)Man(a1-6)]Man(b1-4)GlcNAc(b1-4)GlcNAc", "summary_of_the_method": "as §1"}, "[6]": {"target": "Gal(a1-4)Gal(b1-4)GlcNAc(b1-3)Gal(b1-4)Glc", "summary_of_the_method": "as §1"}, "[7]": {"target": "Gal(a1-4)GlcNAc", "summary_of_the_method": "as §1"}, "[8]": {"target": "Gal(a1-6)Glc", "summary_of_the_method": "as §1"}, "[9]": {"target": "Gal(b1-2)Gal", "summary_of_the_method": "as §1"}, "[10]": {"target": "Gal(b1-3)Gal", "summary_of_the_method": "as §1"}, "[11]": {"target": "Gal(b1-3)Gal(b1-4)GlcNAc", "summary_of_the_method": "as §1"}, "[12]": {"target": "Gal(b1-3)GalNAc", "summary_of_the_method": "as §1"}, "[13]": {"target": "Gal(b1-3)GalNAc(a1-3)[Fuc(a1-2)]Gal(b1-4)Glc", "summary_of_the_method": "as §1"}, "[14]": {"target": "Gal(b1-3)GalNAc(a1-3)[Fuc(a1-2)]Gal(b1-4)GlcNAc", "summary_of_the_method": "as §1"}, "[15]": {"target": "Gal(b1-3)GalNAc(b1-3)Gal", "summary_of_the_method": "as §1"}, "[16]": {"target": "Gal(b1-3)GalNAc(b1-3)Gal(a1-4)Gal(b1-4)Glc", "summary_of_the_method": "as §1"}, "[17]": {"target": "Gal(b1-3)GalNAc(b1-4)Gal(b1-4)Glc", "summary_of_the_method": "as §1"}, "[18]": {"target": "Gal(b1-3)GalNAc(b1-4)[Neu5Ac(a2-3)]Gal(b1-4)Glc", "summary_of_the_method": "as §1"}, "[19]": {"target": "Gal(b1-3)GlcNAc", "summary_of_the_method": "as §1"}, "[20]": {"target": "Gal(b1-3)GlcNAc(a1-3)Gal(b1-4)GlcNAc", "summary_of_the_method": "as §1"}, "[21]": {"target": "Gal(b1-3)GlcNAc(a1-6)Gal(b1-4)GlcNAc", "summary_of_the_method": "as §1"}, "[22]": {"target": "Gal(b1-3)GlcNAc(b1-2)Man", "summary_of_the_method": "as §1"}, "[23]": {"target": "Gal(b1-3)GlcNAc(b1-2)Man(a1-3)[Gal(b1-3)GlcNAc(b1-2)Man(a1-6)]Man(b1-4)GlcNAc(b1-4)GlcNAc", "summary_of_the_method": "as §1"}, "[24]": {"target": "Gal(b1-3)GlcNAc(b1-2)Man(a1-3)[Gal(b1-3)GlcNAc(b1-2)Man(a1-6)]Man(b1-4)GlcNAc(b1-4)[Fuc(a1-6)]GlcNAc", "summary_of_the_method": "as §1"}, "[25]": {"target": "Gal(b1-3)GlcNAc(b1-2)Man(a1-3)[GlcNAc(b1-4)][Gal(b1-3)GlcNAc(b1-2)Man(a1-6)]Man(b1-4)GlcNAc(b1-4)GlcNAc", "summary_of_the_method": "as §1"}, "[26]": {"target": "Gal(b1-3)GlcNAc(b1-2)[Gal(b1-3)GlcNAc(b1-6)]Man(a1-6)[Gal(b1-3)GlcNAc(b1-2)Man(a1-3)]Man(b1-4)GlcNAc(b1-4)GlcNAc", "summary_of_the_method": "as §1"}, "[27]": {"target": "Gal(b1-3)GlcNAc(b1-3)Gal(b1-3)GlcNAc", "summary_of_the_method": "as §1"}, "[28]": {"target": "Gal(b1-3)GlcNAc(b1-3)Gal(b1-4)Glc", "summary_of_the_method": "as §1"}, "[29]": {"target": "Gal(b1-3)GlcNAc(b1-3)Gal(b1-4)GlcNAc", "summary_of_the_method": "as §1"}, "[30]": {"target": "Gal(b1-3)GlcNAc(b1-3)Gal(b1-4)GlcNAc(b1-2)Man(a1-3)[Gal(b1-3)GlcNAc(b1-3)Gal(b1-4)GlcNAc(b1-2)Man(a1-6)]Man(b1-4)GlcNAc(b1-4)GlcNAc", "summary_of_the_method": "as §1"}, "[31]": {"target": "Gal(b1-3)GlcNAc(b1-3)Gal(b1-4)GlcNAc(b1-2)[Gal(b1-3)GlcNAc(b1-3)Gal(b1-4)GlcNAc(b1-6)]Man(a1-6)[Gal(b1-3)GlcNAc(b1-3)Gal(b1-4)GlcNAc(b1-2)Man(a1-3)]Man(b1-4)GlcNAc(b1-4)[Fuc(a1-6)]GlcNAc", "summary_of_the_method": "as §1"}, "[32]": {"target": "Gal(b1-3)GlcNAc(b1-3)Gal(b1-4)GlcNAc(b1-3)Gal(b1-4)GlcNAc(b1-2)[Gal(b1-3)GlcNAc(b1-3)Gal(b1-4)GlcNAc(b1-3)Gal(b1-4)GlcNAc(b1-6)]Man(a1-6)[Gal(b1-3)GlcNAc(b1-3)Gal(b1-4)GlcNAc(b1-3)Gal(b1-4)GlcNAc(b1-2)Man(a1-3)]Man(b1-4)GlcNAc(b1-4)[Fuc(a1-6)]GlcNAc", "summary_of_the_method": "as §1"}, "[33]": {"target": "Gal(b1-3)GlcNAc(b1-3)Gal(b1-4)GlcNAc(b1-6)[Gal(b1-3)GlcNAc(b1-3)]Gal(b1-4)Glc", "summary_of_the_method": "as §1"}, "[34]": {"target": "Gal(b1-3)GlcNAc(b1-3)Gal(b1-4)[Fuc(a1-3)]GlcNAc", "summary_of_the_method": "as §1"}, "[35]": {"target": "Gal(b1-3)GlcNAc(b1-3)Gal(b1-4)[Fuc(a1-3)]GlcNAc(b1-6)[Gal(b1-3)GlcNAc(b1-3)]Gal(b1-4)Glc", "summary_of_the_method": "as §1"}, "[36]": {"target": "Gal(b1-3)GlcNAc(b1-3)GalNAc", "summary_of_the_method": "as §1"}, "[37]": {"target": "Gal(b1-3)GlcNAc(b1-6)Gal(b1-4)GlcNAc", "summary_of_the_method": "as §1"}, "[38]": {"target": "Gal(b1-3)GlcNAc(b1-6)GalNAc", "summary_of_the_method": "as §1"}}, "note": "The other results are listed elsewhere or left out."}
{"binder": "B1", "values": [{"measurement": "glycan array binding signal (z-score)", "setting": "[1]", "value": 0.022}, {"measurement": "glycan array binding signal (z-score)", "setting": "[2]", "value": -0.154}, {"measurement": "glycan array binding signal (z-score)", "setting": "[3]", "value": -0.119}, {"measurement": "glycan array binding signal (z-score)", "setting": "[4]", "value": -0.21}, {"measurement": "glycan array binding signal (z-score)", "setting": "[5]", "value": 0.492}, {"measurement": "glycan array binding signal (z-score)", "setting": "[6]", "value": -0.257}, {"measurement": "glycan array binding signal (z-score)", "setting": "[7]", "value": -0.353}, {"measurement": "glycan array binding signal (z-score)", "setting": "[8]", "value": -0.235}, {"measurement": "glycan array binding signal (z-score)", "setting": "[9]", "value": -0.123}, {"measurement": "glycan array binding signal (z-score)", "setting": "[10]", "value": -0.289}, {"measurement": "glycan array binding signal (z-score)", "setting": "[11]", "value": -0.1}, {"measurement": "glycan array binding signal (z-score)", "setting": "[12]", "value": -0.308}, {"measurement": "glycan array binding signal (z-score)", "setting": "[13]", "value": -0.16}, {"measurement": "glycan array binding signal (z-score)", "setting": "[14]", "value": -0.253}, {"measurement": "glycan array binding signal (z-score)", "setting": "[15]", "value": -0.496}, {"measurement": "glycan array binding signal (z-score)", "setting": "[16]", "value": -0.199}, {"measurement": "glycan array binding signal (z-score)", "setting": "[17]", "value": -0.141}, {"measurement": "glycan array binding signal (z-score)", "setting": "[18]", "value": -0.283}, {"measurement": "glycan array binding signal (z-score)", "setting": "[19]", "value": -0.327}, {"measurement": "glycan array binding signal (z-score)", "setting": "[20]", "value": -0.574}, {"measurement": "glycan array binding signal (z-score)", "setting": "[21]", "value": -0.22}, {"measurement": "glycan array binding signal (z-score)", "setting": "[22]", "value": -0.203}, {"measurement": "glycan array binding signal (z-score)", "setting": "[23]", "value": -0.106}, {"measurement": "glycan array binding signal (z-score)", "setting": "[24]", "value": -0.074}, {"measurement": "glycan array binding signal (z-score)", "setting": "[25]", "value": -0.3}, {"measurement": "glycan array binding signal (z-score)", "setting": "[26]", "value": -0.139}, {"measurement": "glycan array binding signal (z-score)", "setting": "[27]", "value": -0.206}, {"measurement": "glycan array binding signal (z-score)", "setting": "[28]", "value": -0.286}, {"measurement": "glycan array binding signal (z-score)", "setting": "[29]", "value": -0.332}, {"measurement": "glycan array binding signal (z-score)", "setting": "[30]", "value": -0.304}, {"measurement": "glycan array binding signal (z-score)", "setting": "[31]", "value": -0.302}, {"measurement": "glycan array binding signal (z-score)", "setting": "[32]", "value": 0.381}, {"measurement": "glycan array binding signal (z-score)", "setting": "[33]", "value": -0.186}, {"measurement": "glycan array binding signal (z-score)", "setting": "[34]", "value": -0.329}, {"measurement": "glycan array binding signal (z-score)", "setting": "[35]", "value": -0.28}, {"measurement": "glycan array binding signal (z-score)", "setting": "[36]", "value": -0.15}, {"measurement": "glycan array binding signal (z-score)", "setting": "[37]", "value": -0.345}, {"measurement": "glycan array binding signal (z-score)", "setting": "[38]", "value": -0.493}]}
